Measured values taken from paper PMC7819943, “Rice protein-binding microarrays: a tool to detect cis-acting elements near promoter regions in rice”.
Some of the results follow.

Molecular target: T1, OsWOX13 (Oryza sativa, UniProt Q5QMM3 1-267)
T1 sequence: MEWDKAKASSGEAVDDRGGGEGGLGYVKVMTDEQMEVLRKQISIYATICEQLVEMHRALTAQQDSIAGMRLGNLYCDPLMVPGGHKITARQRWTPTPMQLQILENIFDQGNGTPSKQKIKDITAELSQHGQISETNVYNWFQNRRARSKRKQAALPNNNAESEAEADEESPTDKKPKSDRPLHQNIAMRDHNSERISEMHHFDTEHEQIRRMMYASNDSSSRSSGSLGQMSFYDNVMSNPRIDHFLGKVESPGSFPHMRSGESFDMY
Assay: protein-binding microarray (RPBM); PBS, 2% BSA, 51.3 ng/ul salmon testes DNA, 50 uM zinc acetate, 200 nM TF, 25 C, 1 h; high values mean tight binding
Settings: protein: recombinant; tags: N-terminal polyhistidine and DsRed monomer fusion (pET32a); label: CyDye5-dUTP incorporated in the synthesized complementary strand; 3' TTTTT single-stranded linker to array surface; dsDNA, one strand shown
Procedure, shortened: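 The binding signal for each feature is its fluorescence intensity in arbitrary units. An Axon 4000B scanner was used to read a custom Agilent array that had been made double-stranded with Cy5-dUTP primer extension, blocked with 2% BSA, incubated at 25 °C for 1 h with 200 nM protein in PBS, 2% BSA, salmon testes DNA and 50 µM zinc acetate, and washed. The protein was an N-terminal polyhistidine–DsRed transcription factor fusion from E. coli BL21-CodonPlus, purified on Ni–NTA.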

Sequence | binding signal
GACTTTATTTCAATAATTTGAATTTGAATTTCAAATTATGCGGAGTCACCTAGTGCAG | 8160 fluorescence intensity (a.u.)
TCTATATATGACTGACATATGGATCCTTTGACATGTAGATCGGAGTCACCTAGTGCAG | 3330 fluorescence intensity (a.u.)
GAAAGCAATAAATTAGAGTGATAAATACCGGGAGAGTGTGCGGAGTCACCTAGTGCAG | 6500 fluorescence intensity (a.u.)
ATATTAATTTGGTATTGGAGTATACCACTGAGCAATTGCACGGAGTCACCTAGTGCAG | 14700 fluorescence intensity (a.u.)
TATTCTGCGTTTAATTGAGCACATGCATATGTATGTCGCACGGAGTCACCTAGTGCAG | 3290 fluorescence intensity (a.u.)
ATTGCAAATTTGTTGGTGTACATGAACATGAAATTCTAGTCGGAGTCACCTAGTGCAG | 4010 fluorescence intensity (a.u.)
CAAACTGAGATTATAATGCTTAAGGGTGAGTTCGAGGGATCGGAGTCACCTAGTGCAG | 3970 fluorescence intensity (a.u.)
CGTGGAGAGGGGAGGGGAGGGAGAGGGAGACCGGGCGCATCGGAGTCACCTAGTGCAG | 3920 fluorescence intensity (a.u.)
CACAATTCTCCAATCATATACCGACTGTTGTACGTATATTCGGAGTCACCTAGTGCAG | 8830 fluorescence intensity (a.u.)
TGGTTGATGAGATTGATGAAGTGGTGGAGATGTTGACGAACGGAGTCACCTAGTGCAG | 37100 fluorescence intensity (a.u.)
GTACCCATACCCATATAATTGACTTGTAGTATTTATAGTTCGGAGTCACCTAGTGCAG | 3160 fluorescence intensity (a.u.)
ATTTGATTATTTCCTAAGCCCTGTTTCCTTCGTTCTTAAGCGGAGTCACCTAGTGCAG | 40600 fluorescence intensity (a.u.)
TTTTATTTGTACCGATTTCTGATTTGCACAGACATGTTTCCGGAGTCACCTAGTGCAG | 5380 fluorescence intensity (a.u.)
CTTGATTCCCTGCAGATTTCCATGCGCAGCCAGCATCTTGCGGAGTCACCTAGTGCAG | 4090 fluorescence intensity (a.u.)
GGAGATTAATTACAAGGATTAAATAGAAAACGGGTAGAGGCGGAGTCACCTAGTGCAG | 42300 fluorescence intensity (a.u.)
ATAGCCGTTTTGATTGATTCCTAAGTGATCCAAAGCTTGACGGAGTCACCTAGTGCAG | 30900 fluorescence intensity (a.u.)
ACAAACACTGATTAAATTAAATTAAACACTGAGAAAATTCCGGAGTCACCTAGTGCAG | 9580 fluorescence intensity (a.u.)
GTATAGGGGAGAGGGTGGGCGGGTGATCACTGGGTGGGTGCGGAGTCACCTAGTGCAG | 4700 fluorescence intensity (a.u.)
GCTAATAAACTGGCCTGTAACCCGCGCATTTCGCACCCATCGGAGTCACCTAGTGCAG | 12100 fluorescence intensity (a.u.)
CTAATCACTACAATTTCAATCCCCTTCAATTTCCCTCTCTCGGAGTCACCTAGTGCAG | 3820 fluorescence intensity (a.u.)
ATTAATTTGAGACGAAGCTCATGATTTTCTAACAAAATATCGGAGTCACCTAGTGCAG | 4060 fluorescence intensity (a.u.)

Sequence | binding signal
CATGATTTGATAATATGGTGCTACAGTAAATTTTGCTAGTCGGAGTCACCTAGTGCAG | 48100 fluorescence intensity (a.u.)
TCCTTTTCAATATTAGATTGGTTTATTGTAGTACGAAGGGCGGAGTCACCTAGTGCAG | 8130 fluorescence intensity (a.u.)
ATAGGAATCAGGTGCCAATTAACAACCCACGATTAGATGGCGGAGTCACCTAGTGCAG | 9740 fluorescence intensity (a.u.)
TGAGAGCGTTTGTAGGAAGTTTAATTGACAATAGATTAGTCGGAGTCACCTAGTGCAG | 5010 fluorescence intensity (a.u.)
CATCTCACCAGTTACGTTAATTAATGGTAACAGCGCAGCACGGAGTCACCTAGTGCAG | 11800 fluorescence intensity (a.u.)
TGATGATGCCTGATTGGTACTCCTAGCCCTAGGAAGAAAACGGAGTCACCTAGTGCAG | 11400 fluorescence intensity (a.u.)
TTTCATGCATGTGTCAATTTATTTGATAACCATAGTCCACCGGAGTCACCTAGTGCAG | 5710 fluorescence intensity (a.u.)
ATTGGATTATTTGAGGTCGGGGAGGGGTACTTCAATGAATCGGAGTCACCTAGTGCAG | 4410 fluorescence intensity (a.u.)
CCAATTGGAATGCATTGTCTATTTGTTGTCTAGATCTCTCCGGAGTCACCTAGTGCAG | 3760 fluorescence intensity (a.u.)
TTATAAATCATAAAATAATAAATAAATAAGATGCCCGCGCCGGAGTCACCTAGTGCAG | 6280 fluorescence intensity (a.u.)
TATCTAATCTTAATACAATTATTTCCTACTTTATTACTCCCGGAGTCACCTAGTGCAG | 4340 fluorescence intensity (a.u.)
ATCAATCTTCTCAAATTTAGACTACCTCTAAATTTGACCCCGGAGTCACCTAGTGCAG | 15400 fluorescence intensity (a.u.)
CGTTTATTAATCGTTCGTAATTCGAATTATGCTGGGGACACGGAGTCACCTAGTGCAG | 5970 fluorescence intensity (a.u.)
TTTATTAAATTTTCCATGATTAGCTACGCTCTTTGGAATTCGGAGTCACCTAGTGCAG | 32400 fluorescence intensity (a.u.)
CTAAAATTGGAGACGTCACTACAAACGTACGCACTCTTTGCGGAGTCACCTAGTGCAG | 6760 fluorescence intensity (a.u.)
CCACGGAGTTTACGGGTCAATCAGATACTCGGAATTTGGACGGAGTCACCTAGTGCAG | 4860 fluorescence intensity (a.u.)
AAACCTAATTAATTCATCATTAGTAAATGTTTACCGTAGCCGGAGTCACCTAGTGCAG | 30200 fluorescence intensity (a.u.)
TTTGACAGGAGTGATAGGCCTACATGAGCCCAAATGCAAACGGAGTCACCTAGTGCAG | 11700 fluorescence intensity (a.u.)
AGATGATTGATTTTCAGGTGATGAACAGGGTTACTGTTTTCGGAGTCACCTAGTGCAG | 63000 fluorescence intensity (a.u.)
AATCTGTAATTTGTTTTGTTATTAGTCTACATTTAATACTCGGAGTCACCTAGTGCAG | 12500 fluorescence intensity (a.u.)
GTAGAGTAATTAAGTATATCCTTTTGTTCTAGTACATCGGCGGAGTCACCTAGTGCAG | 4870 fluorescence intensity (a.u.)

Sequence | binding signal
CCCGTGGATTGCCGCCTGATTGCTTCAAAAGTGGAGTACGCGGAGTCACCTAGTGCAG | 21500 fluorescence intensity (a.u.)
TGATTAATTTCATGGCTGTCTACTGCTCCTGCAACACTGGCGGAGTCACCTAGTGCAG | 12800 fluorescence intensity (a.u.)
CTCCCCAATCAATATAGCTCATAGCTGCTACGAGTCTATACGGAGTCACCTAGTGCAG | 12600 fluorescence intensity (a.u.)
GCCATTTTGCACCTTAATTAATTTTATGCTGTCTATTCTCCGGAGTCACCTAGTGCAG | 14500 fluorescence intensity (a.u.)
TTGATAAATTTTCTTTCACAAATTTGACAAAAGTAATTATCGGAGTCACCTAGTGCAG | 12700 fluorescence intensity (a.u.)
AGGAATCGGAATTGATTTCATGCACTGATCGATCCATCCACGGAGTCACCTAGTGCAG | 7970 fluorescence intensity (a.u.)
CGGGACCTAATTGATGGTCATATGATGACAGAAGCTTGGACGGAGTCACCTAGTGCAG | 42400 fluorescence intensity (a.u.)
TTTAAAGGATTGATTGCATTCGAGGGTAGAAGCACCACCACGGAGTCACCTAGTGCAG | 33000 fluorescence intensity (a.u.)
TCATTTGATTACTAGATTAGAAGAGTCTATACATGTATCACGGAGTCACCTAGTGCAG | 15500 fluorescence intensity (a.u.)
AAGATTTAATTGCAACGAATTTAATGGTGTAATCGGATCACGGAGTCACCTAGTGCAG | 18500 fluorescence intensity (a.u.)
AAGTAATTTAATGAAATCTAAAAGTAATTTAGATATATTACGGAGTCACCTAGTGCAG | 6760 fluorescence intensity (a.u.)
TGAAAGTAATTTGATGCTATAAGTCAAAGTTAAAGAGATGCGGAGTCACCTAGTGCAG | 3500 fluorescence intensity (a.u.)
GAGCGAGTCATCAAACTCATCAATCATTCAGCTCATCATCCGGAGTCACCTAGTGCAG | 6090 fluorescence intensity (a.u.)
ATGTAATTGATATGGACTCATCTTTGGATATAAAGCAACTCGGAGTCACCTAGTGCAG | 43400 fluorescence intensity (a.u.)
AACAAATCACATGCTCTAAGTGTTAAATAAATGGATCACCCGGAGTCACCTAGTGCAG | 4470 fluorescence intensity (a.u.)
TCGGATAAGACCTTTAGAAATGATTGAAATTCGTCGAGAACGGAGTCACCTAGTGCAG | 4670 fluorescence intensity (a.u.)
AGCTGATTGTTATGAAACTATTAGGAATATAGAGATCCACCGGAGTCACCTAGTGCAG | 43800 fluorescence intensity (a.u.)
TTACATTATAATTAACTGGAATATATGTAGTTAGAATAATCGGAGTCACCTAGTGCAG | 20100 fluorescence intensity (a.u.)
ATTACATATGTAATTTAGTGACTTACAATGTAAACACACGCGGAGTCACCTAGTGCAG | 5330 fluorescence intensity (a.u.)
CTTAATTGCGCGCGAATGGAGTAATACTAGTACTAGTATACGGAGTCACCTAGTGCAG | 15100 fluorescence intensity (a.u.)
GTTTCGATTCCGACGTTAATTACGTTTCTCAGTGTATCAACGGAGTCACCTAGTGCAG | 4410 fluorescence intensity (a.u.)

Sequence | binding signal
GAGAAGTCCAATAAATTGGATGATCCAACACGTCCTGCTCCGGAGTCACCTAGTGCAG | 3540 fluorescence intensity (a.u.)
CCTTAATTCCATCTCCTCTCCGTTTTCTTGATTAAATCCTCGGAGTCACCTAGTGCAG | 5530 fluorescence intensity (a.u.)
GTGTGTATAAATTGATAGCAGCGTGCCTCTCTTCTTCTTCCGGAGTCACCTAGTGCAG | 19300 fluorescence intensity (a.u.)
ATGAAAACTCAATCAATCATACGTGAATACCACCTCATTTCGGAGTCACCTAGTGCAG | 15300 fluorescence intensity (a.u.)
GCACCTGATTAGTGATCATCACCTCTCACAAGCAGTCATCCGGAGTCACCTAGTGCAG | 39000 fluorescence intensity (a.u.)
TCCAATATCTGATTAATTATCCGATATGACACACATGAACCGGAGTCACCTAGTGCAG | 16900 fluorescence intensity (a.u.)
TTAATTTGTTAATTTATAACTCCCATTCCATGAACATTATCGGAGTCACCTAGTGCAG | 22000 fluorescence intensity (a.u.)
CCCCAAATTAATTAACCAGGCTAATCATCCATTAAGAGACCGGAGTCACCTAGTGCAG | 24200 fluorescence intensity (a.u.)
TCCAATTTACAAGATAATTCACATAACAGTACAACCTACTCGGAGTCACCTAGTGCAG | 5630 fluorescence intensity (a.u.)
TGATTAGTGATTAGATTGAACGGATTTCTCCCCTATTTGCCGGAGTCACCTAGTGCAG | 30200 fluorescence intensity (a.u.)
TGTAAATTATGTTGTACATCCTTTCAAGATCAATAACTACCGGAGTCACCTAGTGCAG | 10500 fluorescence intensity (a.u.)
ATATAAATTAATATGTGCCGATTTTCACCCGGCATACATACGGAGTCACCTAGTGCAG | 14100 fluorescence intensity (a.u.)
TCATGGTGATTGCGGCATGAGAGAGTGAGGGTTCTGCGAGCGGAGTCACCTAGTGCAG | 10300 fluorescence intensity (a.u.)
TTTTAGCTAATACTTAATTAATCGTGCATTAATCCATCACCGGAGTCACCTAGTGCAG | 3540 fluorescence intensity (a.u.)
TAAATTTACCTTTTAAAATTATAACAATTACTCCCTCCGTCGGAGTCACCTAGTGCAG | 7360 fluorescence intensity (a.u.)
ATATTATGATTTGTCATAAGTGATGATACTATACTTCCTACGGAGTCACCTAGTGCAG | 4110 fluorescence intensity (a.u.)
CTCAGTAATCACTTCGCACATTAACTCTCTCTCTCTTTCTCGGAGTCACCTAGTGCAG | 3320 fluorescence intensity (a.u.)
GTATTAAAAGACACGATAGATTGGCAGATTACCACCATCGCGGAGTCACCTAGTGCAG | 23700 fluorescence intensity (a.u.)
GCTAGATTTAATGAAACTAATTTGGTGTTTTGAAAGTTGCCGGAGTCACCTAGTGCAG | 28200 fluorescence intensity (a.u.)
GAATAATTACCGAAAAGGCAATTAATTAGTGACAGGGAGTCGGAGTCACCTAGTGCAG | 26200 fluorescence intensity (a.u.)
TAAATTGGAATCTTCAATTTTACCCCTACCTTAAGCAAAGCGGAGTCACCTAGTGCAG | 16500 fluorescence intensity (a.u.)
